Results as given in US4450269A, “Mono-5-substituted-3-chloro-4H-1,2,6-thiadiazin-4-one antifungal agents” (FMC Corporation, priority 1980, dated 1984).

Key:
[1] = test system: Erysiphe polygoni; parameters: key to Dead Plant, curative, bean powdery mildew: DP: Dead Plant; key to Phytotoxicity, curative, bean powdery mildew: b: Slight Phytotoxicity; settings: in vivo
Procedure: In the curative tests the plants were inoculated with the appropriate pathogen 24 hours before chemical treatment. The following host-parasite combinations were used: | Erysiphe polygoni DC Spores of bean rust and bean powdery mildew were obtained from diseased plants. […] Beans (c.v. `Pinto`) were inoculated with rust as described in Example IV-A. Beans (c.v. `Bountiful`) at primary leaf stage were inoculated with powdery mildew by shaking diseased leaves over the test plants, thereby creating a spore deposit on leaves of the test plants. […] All of the plants except those inoculated with bean powdery mildew were incubated in the moisture chamber (21° C.) for 24 hours. The bean powdery mildew inoculated plants were incubated in the greenhouse. The test chemical was sprayed on the foliage of the plants at 150 ppm 24 hours after inoculation. The bean and rice plants were removed from the moisture chamber and allowed to dry before chemical treatment. After treatment the plants were incubated in the greenhouse for 6-10 days. The sugar beets were sprayed while still wet, after which they were immediately returned to the moisture chamber for two days and then to the greenhouse for 10-14 days.

[2] = test system: Uromyces phaseoli; parameters: key: b: Slight Phytotoxicity; settings: in vivo
Procedure: The foliage of a tomato plant in the four leaf stage and a pinto bean in the primary leaf stage was sprayed with the test chemicals at a concentrations of 150 ppm on a weight/volume basis, and the plant allowed to dry overnight.
Sporangia of Phytophthora infestans (late blight fungus) were harvested from cultures grown on lima bean agar for 10 to 14 days. A water suspension of sporangia (2×10^5 sporangia/ml) was incubated at 12° C. for two hours in order to provide a zoospore suspension. Spores of Uromyces phaseoli (bean rust fungus) were collected from diseased plants and a 2% spore powder mixture prepared using ABB Pyrax talc as a diluent.
The tomato plants were inoculated in a spray hood with the zoospore suspension, then immediately incubated in a humidity chamber at 100% relative humidity at 18°-20° C. for four to five days. The bean plants were inoculated by dusting the spore powder onto the leaves. This was accomplished by placing the spore powder in a cheesecloth bag and shaking the bag over the leaves. The inoculated plants were placed in the humidity chamber at 100% relative humidity and 21° C. for 24 hours and then placed in the greenhouse for four to six days until disease symptoms developed.
The percent disease control was then determined by comparing the disease incidence in treated plants and untreated check plants.

| Compound | Dead Plant, curative, bean powdery mildew [1] | Phytotoxicity, foliar, bean rust [2] | other results |
| --- | --- | --- | --- |
| Cc1cc(Oc2nsnc(Cl)c2=O)cc(C)c1Cl [Compound 59, 3-chloro-5-[(4-chloro-3,5-dimethyl)phenoxy]-4H--1,2,6-thiadiazin-4-one] | DP |  |  |
| O=c1c(Cl)nsnc1Oc1cccc(Cl)c1 [Compound 13, 3-chloro-5-(3-chlorophenoxy)-4H--1,2,6-thiadiazin-4-one] |  | b |  |
| O=c1c(Cl)nsnc1Oc1cc(Cl)cc(Cl)c1 [Compound 20, 3-chloro-5-(3,5-dichlorophenoxy)-4H--1,2,6-thiadiazin-4-one] |  |  | Phytotoxicity, curative, bean powdery mildew [1]: b |
| Cc1cc(Oc2nsnc(Cl)c2=O)cc(C)c1Br [Compound 60, 3-[(4-bromo-3,5-dimethyl)-phenoxy]-5-chloro-4H--1,2,6-thiadiazin-4-one] | DP |  |  |
| Cc1cc(Cl)ccc1Oc1nsnc(Cl)c1=O [Compound 55, 3-chloro-5-(4-chloro-2-methylphenoxy)-4H--1,2,6-thiadiazin-4-one] |  | b |  |
| O=c1c(Cl)nsnc1Oc1cccc(Cl)c1Cl [Compound 19, 3-chloro-5-(2,3-dichlorophenoxy)-4H--1,2,6-thiadiazin-4-one] | DP |  |  |
| CC(=O)Nc1ccc(Oc2nsnc(Cl)c2=O)cc1 [Compound 8, 5-(4-acetylaminophenoxy)-3-chloro-4H--1,2,6-thiadiazin-4-one] |  | b |  |
